Assay results reported in article PMC4336329 (PLoS ONE, 2015).
The whole screen tested about 310,000 compounds, of which about 14,000 (4.5%) showed an effect of 50% or more. The effect is printed as a negative number. This is one part of the list.

Each compound was assayed against human ether-à-go-go-related gene (hERG) potassium channel (human, UniProt Q12809) (assay: primary screen, population patch clamp on CHO cells stably expressing hERG).
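Further: peak tail current of the secondary pulse compared with the same well before compound.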

Sequence of human ether-à-go-go-related gene (hERG) potassium channel (Q12809 whole entry, looked up): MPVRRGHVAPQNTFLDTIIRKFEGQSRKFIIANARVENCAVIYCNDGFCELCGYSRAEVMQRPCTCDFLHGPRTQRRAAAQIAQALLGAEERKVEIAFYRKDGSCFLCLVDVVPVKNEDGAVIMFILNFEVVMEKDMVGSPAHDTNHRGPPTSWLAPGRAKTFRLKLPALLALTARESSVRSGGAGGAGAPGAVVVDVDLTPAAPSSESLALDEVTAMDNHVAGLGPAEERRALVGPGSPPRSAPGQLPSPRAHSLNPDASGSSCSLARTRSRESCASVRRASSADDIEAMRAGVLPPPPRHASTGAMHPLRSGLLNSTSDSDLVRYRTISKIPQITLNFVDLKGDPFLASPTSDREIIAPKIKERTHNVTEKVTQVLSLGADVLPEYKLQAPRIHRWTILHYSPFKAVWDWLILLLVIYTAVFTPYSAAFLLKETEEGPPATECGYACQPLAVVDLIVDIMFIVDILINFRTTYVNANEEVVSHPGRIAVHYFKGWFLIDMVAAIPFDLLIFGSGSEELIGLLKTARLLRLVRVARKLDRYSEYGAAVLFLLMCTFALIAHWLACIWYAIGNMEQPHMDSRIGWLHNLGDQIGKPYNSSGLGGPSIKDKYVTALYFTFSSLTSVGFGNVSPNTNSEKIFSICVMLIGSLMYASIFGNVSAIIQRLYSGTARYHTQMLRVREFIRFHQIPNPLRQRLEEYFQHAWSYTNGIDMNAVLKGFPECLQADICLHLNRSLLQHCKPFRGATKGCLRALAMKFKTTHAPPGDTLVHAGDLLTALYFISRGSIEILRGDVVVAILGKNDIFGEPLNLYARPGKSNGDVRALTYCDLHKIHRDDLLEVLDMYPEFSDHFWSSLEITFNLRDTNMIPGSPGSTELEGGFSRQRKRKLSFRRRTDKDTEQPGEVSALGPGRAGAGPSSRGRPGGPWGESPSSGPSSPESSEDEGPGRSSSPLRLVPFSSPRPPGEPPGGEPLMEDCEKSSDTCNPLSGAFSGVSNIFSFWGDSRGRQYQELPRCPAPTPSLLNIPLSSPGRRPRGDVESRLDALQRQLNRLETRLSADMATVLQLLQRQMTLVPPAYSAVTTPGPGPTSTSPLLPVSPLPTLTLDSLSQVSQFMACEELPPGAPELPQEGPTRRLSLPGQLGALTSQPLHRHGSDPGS

Compound | hERG current change (%, negative = inhibition) at 10uM
Cc1cc(C)n(-c2ccc(C(=O)Nc3ccccn3)cc2)n1 | 4.43%
CNC(=O)c1cc2ccccc2o1 | -8.44%
Cc1ccc(NP(=O)(c2ccc(N(C)C)cc2NC(=O)c2cccs2)N2CCOCC2)cc1Cl (centres unmarked) | -2.7%
COc1ccc(-c2[nH]ncc2CN2CCC(O)(c3ccc(Cl)cc3)CC2)cc1 | -71.8%
Cc1ccccc1-n1c(SCc2c(C)noc2C)nnc1-c1c[nH]c2ccccc12 | 15.1%
CC(=O)c1cc(C(=O)N2CCCC(C(=O)c3ccc(Cl)cc3)C2)cs1 (centres unmarked) | -31.9%
O=C(COC(=O)CSc1ccc2ccccc2c1)NC1CCCC1 | 22.9%
COc1ccc(C(CCc2ccc(C)o2)NC(=O)Nc2ccc(OC)cc2OC)cc1 (centres unmarked) | -17.7%
O=S(=O)(NC1CC2CCC1C2)c1ccc2c(c1)OCCO2 (centres unmarked) | -6.04%
Cc1ccc(/C=C/C(=O)O)cc1S(=O)(=O)NCc1cccnc1 | 9.04%
COc1cccc(/C=N/NC(=O)c2c(-c3ccccc3)noc2C)c1O | -0.726%
CCOC(=O)C1Nc2ccc(OC(F)(F)F)cc2C2C=CCC12 (centres unmarked) | 13%
CN(CC(=O)Nc1ccc(Cl)c(C(F)(F)F)c1)C(=O)C1CSC2(C)CCC(=O)N12 (centres unmarked) | -6.57%
CCC(=O)OC1(C)C(=O)C=C2C=C(c3ccc(C#N)cc3)OC=C2C1=O (centres unmarked) | 5.58%
Nc1ccc(Nc2ccncc2[N+](=O)[O-])cc1 | 10.1%
COc1ccc(CN(C)C(=O)c2ccc(NC(=O)CC3SC(N4CCCC4)=NC3=O)cc2)c(OC)c1OC (centres unmarked) | 13.3%
O=C(/C=C/c1ccccc1[N+](=O)[O-])OCC(=O)N1CCCC1 | 12%
CCOc1ccc(C(=O)Nc2ccc(S(=O)(=O)N3CCOCC3)cc2)cc1OCC | -8%
CCN1CCN(c2ccc(S(=O)(=O)N3CCCCC3)cc2NC(=O)Cc2ccccc2)CC1 | -33.5%
Cc1ccc(S(=O)(=O)N2CCN(C(=O)CCCN3C(=O)NC4(CCCC4)C3=O)CC2)cc1C | 18.3%
C/C(=N\Nc1nc(-c2ccccn2)nc2ccccc12)c1ccc(F)cc1 | 11%
CCCCOC(=O)Nc1nnc(CC)s1 | 19.1%

Compound | hERG current change (%, negative = inhibition) at 10uM
CCCCOc1ccc(-c2nnn(CC(=O)c3c[nH]c4ccccc34)n2)cc1 | 22%
Cc1csc2c(N3CCC(C(=O)O)CC3)ncnc12 | 9.95%
COc1ccc(/C=C2\SC(=S)N(CCC(=O)N3CCCCC3)C2=O)cc1 | -13.4%
O=C(NCc1ccco1)c1cccs1 | -4.32%
Cc1nn(-c2ccccc2)c(C)c1NC(=O)COC(=O)Cc1ccccc1F | -2.56%
C=CCn1cc(C(=O)NCCCN(CC)CC)c(=O)c2cc(S(=O)(=O)N3CCC(C)CC3)ccc21 | -53.7%
CCOC(=O)CNC(=O)c1cnn2cccnc12 | 2.78%
COc1ccc(OC(C)C(=O)Nc2cccc([N+](=O)[O-])c2)cc1 (centres unmarked) | -58.8%
C=C(C)COc1ccc2c(C)c(CC(=O)N3C[C@H]4C[C@@H](C3)c3cccc(=O)n3C4)c(=O)oc2c1C | -49.2%
CC(C)C(NC(=O)C12CC3CC(CC(C3)C1)C2)C(=O)O (centres unmarked) | -9.65%
O=S(=O)(Nc1ccc(Nc2ccccc2)cc1)c1ccc(F)cc1 | 6.46%
O=C(NCc1ccccc1Cl)c1ccc2c(c1)SC1=NS(=O)(=O)CCN12 | -7.44%
CC1(C)Cc2ccccc2-c2c1c(=O)n(Cc1ccccc1)c1nnnn21 | -3.67%
CNC(=O)C(NC(=O)CNC(=O)c1ccc(Cl)cc1)C(C)(C)C (centres unmarked) | 21.6%
COC(=O)CCN1CCC(c2cc(-c3cccc(C(F)(F)F)c3)n[nH]2)CC1 | -72.2%
OC1(c2cccc(C(F)(F)F)c2)CCN(c2ncnc3c2[nH]c2ccccc23)CC1 | -22.6%
Cc1cc(OC(=O)Cc2cccc3ccccc23)c([N+](=O)[O-])c(=O)[nH]1 | 16.1%
Cc1ccc(-c2noc(CCC(=O)NC3CCCC3)n2)cc1 | 2.17%
Cc1ccc(S(=O)(=O)N2CCC(C(=O)OCC(=O)N(C)c3ccccc3)CC2)cc1C | 3.15%
Cc1ccc2nc(NCc3ccco3)c(C=NCc3ccco3)c(=O)n2c1 | -5.94%
CC(=O)OC1CCC2(C)C(CCC3C2CC(OC(C)=O)C2(C)C3C[C@@H]3O[C@]4(CC[C@@H](C)CO4)[C@@H](C)C32)C1 (some centres unmarked) | 7.43%
Cc1cc(C)c2c(CN3CCN(C)CC3)cc(=O)oc2c1 | -73.3%

Compound | hERG current change (%, negative = inhibition) at 10uM
CC1C(=O)C(C)C(c2ccc(O)cc2)NC1c1ccc(O)cc1 (centres unmarked) | 23%
COc1cc(C(=O)N2CCN(S(=O)(=O)c3cccc(F)c3)CC2)ccc1OCC(=O)N1CCOCC1 | -0.874%
COc1ccc(S(=O)(=O)N(C)c2ccc(C(=O)N3CCOCC3)cc2)cc1 | -6.62%
O=C(c1ccc2c(c1)OCO2)N1CCOCC1 | 17.5%
CSc1ccccc1C(=O)N1CCC(n2nccc2NC(=O)C(C)(C)C)CC1 | 33.5%
NC(=O)c1ccc(NC(=O)CCNC(=O)c2ccco2)cc1 | 10.1%
Cc1cc2c(cc1S(=O)(=O)N1CC(C)CC(C)C1)OCC(=O)N2 (centres unmarked) | 1.32%
COC(=O)c1cc(NC(=O)c2cc(-c3ccc(Cl)cc3)oc2C(F)(F)F)ccc1N1CCOCC1 | 14.7%
O=C1CC(N2CCN(c3ccccc3)CC2)C(=O)N1Cc1ccc(Cl)cc1 (centres unmarked) | -35.1%
COc1cc(C)c(-c2nc(CN3C[C@@H]4C[C@@H](C3)c3cccc(=O)n3C4)c(C)o2)cc1C | -57.6%
COc1ccc(Cc2nnc(SCC(=O)Nc3ccc(N4CCOCC4)cc3)n2C)cc1 | 8.93%
CCOc1cc(-c2nc3ccccc3s2)ccc1O | 4.57%
CC(=O)NCCSCCNC(C)=O | 9.63%
COc1ccccc1NC(=O)CNC(=O)c1ccc(F)cc1 | 1.55%
NC(=O)CSc1nc2ccccc2c(=O)n1Cc1ccco1 | -36%
CC(=O)NCCNc1nc2c(-c3cccc(C)c3)nnn2c2ccccc12 | 12.8%
Cc1ccsc1C(=O)N1CCCC(N2CCN(c3cccc(Cl)c3)CC2)C1 (centres unmarked) | -22.2%
CC1=CC(=Nc2c(C)n(C)n(-c3ccccc3)c2=O)C=C(C)C1=O | 13.4%
CC(=O)Nc1ccc(C2=NNC(=Nc3ccc(S(=O)(=O)N4CCOCC4)cc3)SC2)cc1 | 1.14%
CCc1ccc(NC(=O)c2nc(S(=O)(=O)Cc3ccccc3)ncc2Cl)cc1 | 37.2%
Cn1c(O)c(C=Nc2ccc(Br)cc2)sc1=O | 32.3%
C1CNC(C23CC4CC(CC(C4)C2)C3)=N1 | 14.4%

Compound | hERG current change (%, negative = inhibition) at 10uM
O=C(CCCN1C(=O)NC2(CCCC2)C1=O)Nc1ccc(F)cc1 | 3.91%
Cc1cc(C(=O)N[C@H](c2ccccc2)[C@@]2(C)C[C@@H]2[C@@H](C)C(=O)Nc2ccc3ccccc3c2)n(C)n1 | -8.32%
CC(C)c1cc(-c2cc(-c3ccc(Cl)cc3)on2)nc(NC2CCCC2)n1 | 13.3%
CC1CN(c2nc3ccccc3cc2-c2ccccc2)CC(C)O1 (centres unmarked) | -1.86%
COc1ccc(NC(=O)CN2CCC(NC(=O)C3CCCCC3)CC2)cc1 | -27.5%
Cc1ccccc1NC(=O)c1nc2nccc(C)n2n1 | -2.88%
CCC(Sc1nc2ccc(N)cc2s1)C(=O)Nc1nccs1 (centres unmarked) | 7.08%
COc1ccc(S(=O)(=O)n2ccc(C(C)Oc3ccc(-c4ccccc4)c(F)c3)n2)cc1 (centres unmarked) | 17.4%
Cc1ccc(NC(=O)c2ccc(CSc3ncnc4nc[nH]c34)cc2)c(C)c1 | 7.48%
CCC(=O)N1c2ccc(S(=O)(=O)NC3CCCCC3)cc2CC1C (centres unmarked) | -12.1%
CCOC(=O)C1=C(C)NC(C)=C(C(=O)OCC)C1C(=O)OCC(=O)N1CCc2ccccc2C1 | -3.85%
COc1ccc(-c2nc3c(c(SCC(=O)N4CCOCC4)n2)COC(C)(C)C3)cc1 | -7.61%
Cc1ccc(-n2c(=O)c3c4c(sc3n(Cc3cc(=O)n5ccccc5n3)c2=O)CCC4)cc1C | -69.1%
Cc1cc(NC(=O)c2ccno2)no1 | 13.8%
NC(=O)/C(=N\OC(=O)c1ccco1)c1nc(-c2ccc(Br)cc2)cs1 | 7.28%
O=C(CSc1ccccc1)Nc1ccc(S(=O)(=O)Nc2ncccn2)cc1 | -20.9%
O=C1/C(=C/c2ccc(F)c(F)c2)CSc2sccc21 | 8.63%
Cc1ccc(S(=O)(=O)c2nc(S(=O)(=O)c3ccccc3)sc2N2CCN(C)CC2)cc1 | -42.3%
Cc1cc2oc3c(c(=O)c2cc1C)C(c1cccc(Br)c1)N(Cc1ccco1)C3=O (centres unmarked) | 13.4%
NS(=O)(=O)c1ccc(-n2nncc2C23CC4CC(CC(C4)C2)C3)cc1 | -11.4%
